# In article PMC12820563, “FoxP3 forms a head-to-head dimer in vivo and stabilizes its multimerization on adjacent microsatellites”:
# Some of the results follow.
# Molecular target: T1, MBP-FoxP1dN (Mus musculus, UniProt P58462 326-579)
# T1 sequence: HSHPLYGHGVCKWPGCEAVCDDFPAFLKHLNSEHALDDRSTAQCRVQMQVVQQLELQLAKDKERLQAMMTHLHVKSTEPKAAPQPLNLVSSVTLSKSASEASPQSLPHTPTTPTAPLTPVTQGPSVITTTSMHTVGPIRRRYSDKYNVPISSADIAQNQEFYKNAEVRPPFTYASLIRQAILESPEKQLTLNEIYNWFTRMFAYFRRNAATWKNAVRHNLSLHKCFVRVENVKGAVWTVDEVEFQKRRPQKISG
# Assay: PD-seq (MBP pull-down with sequencing); 20 mM Tris-HCl pH 7.5, 100 mM NaCl, 1.5 mM MgCl2, 0.4 uM protein, 0.1 uM dsDNA library, 30 min, room temperature, amylose pull-down; high values mean tight binding
# Settings: protein: recombinant; tags: His6-MBP; chain copies: 2; dsDNA, one strand shown
# Outline: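 The N-terminus-lacking fragment of mouse FoxP3 or FoxP1 carried a His6-MBP tag and was expressed in E. coli. At 0.4 µM it was incubated with 0.1 µM Klenow-filled degenerate double-stranded DNA library for 30 min at room temperature in Tris pH 7.5 buffer with NaCl and MgCl2, and complexes were caught on amylose resin, washed three times, released with proteinase K, PCR-barcoded and Illumina-sequenced. Binding is reads-per-million enrichment of pull-down over input with replicates pooled.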
row,Sequence,binding signal
1,GATGATTGTTCTCCCAGCTGATGAATTATTAGACTCGAGTAAACAAATTTTCCTAATCTTTCTGTTCAAGCGCCATCTAC,1.12 RPM ratio (pull-down/input)
2,GATGATTGTTCTCCCAGCTGATGAATTGACGAGATCGAGTAAACAAATTTTCCTAATCTTTCTGTTCAAGCGCCATCTAC,0.964 RPM ratio (pull-down/input)
3,GATGATTGTTCTCCCAGCTGATGAATTTCAGGCTTCGAGTAAACAAATTTTCCTAATCTTTCTGTTCAAGCGCCATCTAC,0.856 RPM ratio (pull-down/input)
4,GATGATTGTTCTCCCAGCTGATGAATTCCACTCGTCGAGTAAACAAATTTTCCTAATCTTTCTGTTCAAGCGCCATCTAC,0.819 RPM ratio (pull-down/input)
5,GATGATTGTTCTCCCAGCTGATGAATTGCCCTGATCGAGTAAACAAATTTTCCTAATCTTTCTGTTCAAGCGCCATCTAC,0.914 RPM ratio (pull-down/input)
6,GATGATTGTTCTCCCAGCTGATGAATTAGGCCGTTCGAGTAAACAAATTTTCCTAATCTTTCTGTTCAAGCGCCATCTAC,0.901 RPM ratio (pull-down/input)
7,GATGATTGTTCTCCCAGCTGATGAATTTGCAAGGTCGAGTAAACAAATTTTCCTAATCTTTCTGTTCAAGCGCCATCTAC,0.889 RPM ratio (pull-down/input)
8,GATGATTGTTCTCCCAGCTGATGAATTTAACGATTCGAGTAAACAAATTTTCCTAATCTTTCTGTTCAAGCGCCATCTAC,0.937 RPM ratio (pull-down/input)
9,GATGATTGTTCTCCCAGCTGATGAATTGAGGGATTCGAGTAAACAAATTTTCCTAATCTTTCTGTTCAAGCGCCATCTAC,0.896 RPM ratio (pull-down/input)
10,GATGATTGTTCTCCCAGCTGATGAATTGCAATGCTCGAGTAAACAAATTTTCCTAATCTTTCTGTTCAAGCGCCATCTAC,1.32 RPM ratio (pull-down/input)
11,GATGATTGTTCTCCCAGCTGATGAATTAGAACATTCGAGTAAACAAATTTTCCTAATCTTTCTGTTCAAGCGCCATCTAC,0.956 RPM ratio (pull-down/input)
12,GATGATTGTTCTCCCAGCTGATGAATTTATTAGCTCGAGTAAACAAATTTTCCTAATCTTTCTGTTCAAGCGCCATCTAC,1.19 RPM ratio (pull-down/input)
13,GATGATTGTTCTCCCAGCTGATGAATTACACCCATCGAGTAAACAAATTTTCCTAATCTTTCTGTTCAAGCGCCATCTAC,1.21 RPM ratio (pull-down/input)
14,GATGATTGTTCTCCCAGCTGATGAATTCTGAGAGTCGAGTAAACAAATTTTCCTAATCTTTCTGTTCAAGCGCCATCTAC,0.785 RPM ratio (pull-down/input)
15,GATGATTGTTCTCCCAGCTGATGAATTGAGCCTTTCGAGTAAACAAATTTTCCTAATCTTTCTGTTCAAGCGCCATCTAC,0.873 RPM ratio (pull-down/input)
16,GATGATTGTTCTCCCAGCTGATGAATTGACAATATCGAGTAAACAAATTTTCCTAATCTTTCTGTTCAAGCGCCATCTAC,1.86 RPM ratio (pull-down/input)
17,GATGATTGTTCTCCCAGCTGATGAATTCGCACATTCGAGTAAACAAATTTTCCTAATCTTTCTGTTCAAGCGCCATCTAC,0.901 RPM ratio (pull-down/input)
18,GATGATTGTTCTCCCAGCTGATGAATTAACATAGTCGAGTAAACAAATTTTCCTAATCTTTCTGTTCAAGCGCCATCTAC,0.985 RPM ratio (pull-down/input)
19,GATGATTGTTCTCCCAGCTGATGAATTAGGATGATCGAGTAAACAAATTTTCCTAATCTTTCTGTTCAAGCGCCATCTAC,0.916 RPM ratio (pull-down/input)
20,GATGATTGTTCTCCCAGCTGATGAATTATACTCCTCGAGTAAACAAATTTTCCTAATCTTTCTGTTCAAGCGCCATCTAC,0.867 RPM ratio (pull-down/input)
21,GATGATTGTTCTCCCAGCTGATGAATTTACCGGTTCGAGTAAACAAATTTTCCTAATCTTTCTGTTCAAGCGCCATCTAC,1.12 RPM ratio (pull-down/input)

row,Sequence,binding signal
1,GATGATTGTTCTCCCAGCTGATGAATTACCCTCCTCGAGTAAACAAATTTTCCTAATCTTTCTGTTCAAGCGCCATCTAC,0.807 RPM ratio (pull-down/input)
2,GATGATTGTTCTCCCAGCTGATGAATTGGCTAGTTCGAGTAAACAAATTTTCCTAATCTTTCTGTTCAAGCGCCATCTAC,0.845 RPM ratio (pull-down/input)
3,GATGATTGTTCTCCCAGCTGATGAATTTCTGGGCTCGAGTAAACAAATTTTCCTAATCTTTCTGTTCAAGCGCCATCTAC,0.755 RPM ratio (pull-down/input)
4,GATGATTGTTCTCCCAGCTGATGAATTGGCTCTGTCGAGTAAACAAATTTTCCTAATCTTTCTGTTCAAGCGCCATCTAC,0.831 RPM ratio (pull-down/input)
5,GATGATTGTTCTCCCAGCTGATGAATTGCCTGACTCGAGTAAACAAATTTTCCTAATCTTTCTGTTCAAGCGCCATCTAC,0.893 RPM ratio (pull-down/input)
6,GATGATTGTTCTCCCAGCTGATGAATTTCATTAATCGAGTAAACAAATTTTCCTAATCTTTCTGTTCAAGCGCCATCTAC,1.01 RPM ratio (pull-down/input)
7,GATGATTGTTCTCCCAGCTGATGAATTAGTCGAATCGAGTAAACAAATTTTCCTAATCTTTCTGTTCAAGCGCCATCTAC,0.946 RPM ratio (pull-down/input)
8,GATGATTGTTCTCCCAGCTGATGAATTCGAATTATCGAGTAAACAAATTTTCCTAATCTTTCTGTTCAAGCGCCATCTAC,0.96 RPM ratio (pull-down/input)
9,GATGATTGTTCTCCCAGCTGATGAATTAGAGCCTTCGAGTAAACAAATTTTCCTAATCTTTCTGTTCAAGCGCCATCTAC,0.903 RPM ratio (pull-down/input)
10,GATGATTGTTCTCCCAGCTGATGAATTGTGCCTCTCGAGTAAACAAATTTTCCTAATCTTTCTGTTCAAGCGCCATCTAC,1.11 RPM ratio (pull-down/input)
11,GATGATTGTTCTCCCAGCTGATGAATTACGTCTCTCGAGTAAACAAATTTTCCTAATCTTTCTGTTCAAGCGCCATCTAC,0.944 RPM ratio (pull-down/input)
12,GATGATTGTTCTCCCAGCTGATGAATTAGGGTTCTCGAGTAAACAAATTTTCCTAATCTTTCTGTTCAAGCGCCATCTAC,0.852 RPM ratio (pull-down/input)
13,GATGATTGTTCTCCCAGCTGATGAATTCCAGAGCTCGAGTAAACAAATTTTCCTAATCTTTCTGTTCAAGCGCCATCTAC,0.742 RPM ratio (pull-down/input)
14,GATGATTGTTCTCCCAGCTGATGAATTGCCAATCTCGAGTAAACAAATTTTCCTAATCTTTCTGTTCAAGCGCCATCTAC,1.01 RPM ratio (pull-down/input)
15,GATGATTGTTCTCCCAGCTGATGAATTGGTCGGGTCGAGTAAACAAATTTTCCTAATCTTTCTGTTCAAGCGCCATCTAC,0.831 RPM ratio (pull-down/input)
16,GATGATTGTTCTCCCAGCTGATGAATTCCAACGGTCGAGTAAACAAATTTTCCTAATCTTTCTGTTCAAGCGCCATCTAC,0.817 RPM ratio (pull-down/input)
17,GATGATTGTTCTCCCAGCTGATGAATTAATTCACTCGAGTAAACAAATTTTCCTAATCTTTCTGTTCAAGCGCCATCTAC,0.938 RPM ratio (pull-down/input)
18,GATGATTGTTCTCCCAGCTGATGAATTCTAAGCGTCGAGTAAACAAATTTTCCTAATCTTTCTGTTCAAGCGCCATCTAC,0.886 RPM ratio (pull-down/input)
19,GATGATTGTTCTCCCAGCTGATGAATTAAGGAACTCGAGTAAACAAATTTTCCTAATCTTTCTGTTCAAGCGCCATCTAC,0.833 RPM ratio (pull-down/input)
20,GATGATTGTTCTCCCAGCTGATGAATTCACCATATCGAGTAAACAAATTTTCCTAATCTTTCTGTTCAAGCGCCATCTAC,0.984 RPM ratio (pull-down/input)
21,GATGATTGTTCTCCCAGCTGATGAATTAGGACCCTCGAGTAAACAAATTTTCCTAATCTTTCTGTTCAAGCGCCATCTAC,0.894 RPM ratio (pull-down/input)

row,Sequence,binding signal
1,GATGATTGTTCTCCCAGCTGATGAATTAACCTTATCGAGTAAACAAATTTTCCTAATCTTTCTGTTCAAGCGCCATCTAC,0.853 RPM ratio (pull-down/input)
2,GATGATTGTTCTCCCAGCTGATGAATTTACAGGATCGAGTAAACAAATTTTCCTAATCTTTCTGTTCAAGCGCCATCTAC,1.2 RPM ratio (pull-down/input)
3,GATGATTGTTCTCCCAGCTGATGAATTTCAGTCTTCGAGTAAACAAATTTTCCTAATCTTTCTGTTCAAGCGCCATCTAC,0.74 RPM ratio (pull-down/input)
4,GATGATTGTTCTCCCAGCTGATGAATTCTAATGTTCGAGTAAACAAATTTTCCTAATCTTTCTGTTCAAGCGCCATCTAC,1 RPM ratio (pull-down/input)
5,GATGATTGTTCTCCCAGCTGATGAATTACGCTAATCGAGTAAACAAATTTTCCTAATCTTTCTGTTCAAGCGCCATCTAC,1.12 RPM ratio (pull-down/input)
6,GATGATTGTTCTCCCAGCTGATGAATTGAAAGGTTCGAGTAAACAAATTTTCCTAATCTTTCTGTTCAAGCGCCATCTAC,0.83 RPM ratio (pull-down/input)
7,GATGATTGTTCTCCCAGCTGATGAATTTAGCATTTCGAGTAAACAAATTTTCCTAATCTTTCTGTTCAAGCGCCATCTAC,1.21 RPM ratio (pull-down/input)
8,GATGATTGTTCTCCCAGCTGATGAATTCTTCATCTCGAGTAAACAAATTTTCCTAATCTTTCTGTTCAAGCGCCATCTAC,0.813 RPM ratio (pull-down/input)
9,GATGATTGTTCTCCCAGCTGATGAATTATTTTCGTCGAGTAAACAAATTTTCCTAATCTTTCTGTTCAAGCGCCATCTAC,1.28 RPM ratio (pull-down/input)
10,GATGATTGTTCTCCCAGCTGATGAATTAATAGCATCGAGTAAACAAATTTTCCTAATCTTTCTGTTCAAGCGCCATCTAC,1.33 RPM ratio (pull-down/input)
11,GATGATTGTTCTCCCAGCTGATGAATTGATGCCCTCGAGTAAACAAATTTTCCTAATCTTTCTGTTCAAGCGCCATCTAC,1.11 RPM ratio (pull-down/input)
12,GATGATTGTTCTCCCAGCTGATGAATTACTTCCGTCGAGTAAACAAATTTTCCTAATCTTTCTGTTCAAGCGCCATCTAC,1 RPM ratio (pull-down/input)
13,GATGATTGTTCTCCCAGCTGATGAATTTCGGGTTTCGAGTAAACAAATTTTCCTAATCTTTCTGTTCAAGCGCCATCTAC,0.828 RPM ratio (pull-down/input)
14,GATGATTGTTCTCCCAGCTGATGAATTTGCTTTATCGAGTAAACAAATTTTCCTAATCTTTCTGTTCAAGCGCCATCTAC,1.1 RPM ratio (pull-down/input)
15,GATGATTGTTCTCCCAGCTGATGAATTTCTTAGATCGAGTAAACAAATTTTCCTAATCTTTCTGTTCAAGCGCCATCTAC,0.853 RPM ratio (pull-down/input)
16,GATGATTGTTCTCCCAGCTGATGAATTAACATGTTCGAGTAAACAAATTTTCCTAATCTTTCTGTTCAAGCGCCATCTAC,1.05 RPM ratio (pull-down/input)
17,GATGATTGTTCTCCCAGCTGATGAATTGACCTGGTCGAGTAAACAAATTTTCCTAATCTTTCTGTTCAAGCGCCATCTAC,0.841 RPM ratio (pull-down/input)
18,GATGATTGTTCTCCCAGCTGATGAATTAGACCCCTCGAGTAAACAAATTTTCCTAATCTTTCTGTTCAAGCGCCATCTAC,0.845 RPM ratio (pull-down/input)
19,GATGATTGTTCTCCCAGCTGATGAATTGAGTGGCTCGAGTAAACAAATTTTCCTAATCTTTCTGTTCAAGCGCCATCTAC,0.823 RPM ratio (pull-down/input)
20,GATGATTGTTCTCCCAGCTGATGAATTTGCGGAATCGAGTAAACAAATTTTCCTAATCTTTCTGTTCAAGCGCCATCTAC,1.02 RPM ratio (pull-down/input)
21,GATGATTGTTCTCCCAGCTGATGAATTGCTCAAGTCGAGTAAACAAATTTTCCTAATCTTTCTGTTCAAGCGCCATCTAC,0.907 RPM ratio (pull-down/input)
